The test system of assay [1] is RAW-Dual. Kind of assay: IRF Lucia reporter activity, fold change vs agonist alone; higher = enhanced IRF activity. The note with it: agonist: MPLA (TLR4) […]. In a few lines: (§1)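 After 50 nL of library stock was delivered by pin tool to RAW-Dual macrophages (50,000 cells/well, DMEM, 384-well plates), a PRR agonist was added 1 h later and the plates were kept at 37 °C, 5% CO2. Twenty hours later, IRF was read from supernatant by QuantiLuc luminescence and NF-κB by QuantiBlue absorbance at 620 nm. Reporter activity is stated as fold change over agonist-alone wells. Wells with IncuCyte confluency under 70% of agonist controls in both mask sets were counted as cytotoxic.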

Assay [2] concerns RAW-Dual. Kind of assay: IRF Lucia reporter activity, fold change vs agonist alone; cytotoxicity flag (confluency mask): not cytotoxic; higher = enhanced IRF activity. The essentials: as §1
In assay [3] the test system is RAW-Dual. Kind of assay: IRF Lucia reporter activity, fold change vs agonist alone; cytotoxicity flag (confluency mask): cytotoxic (confluency <70% of control); higher = enhanced IRF activity. The essentials: as §1
Setting [4] is: library stock concentration (final ~1000-fold dilution): 10 mM, cytotoxicity flag (confluency mask): not cytotoxic.
Where [5] appears, read: agonist: 3'3'-cGAMP (STING) 10 ug/mL.
Where [6] appears, read: library stock concentration (final ~1000-fold dilution): 10 mM, cytotoxicity flag (confluency mask): cytotoxic (confluency <70% of control).

± gives the standard deviation of the averaged measurements. Whole data set: some 2,900 compounds, median “IRF Lucia reporter activity, fold change vs agonist alone” near 0.9, cut for the highest 2% near 2.8. This is one part of the list.

This is an account of results in the supplement of paper PMC10037445.

`Cc1ccc(C(=O)C(C)CN2CCCCC2)cc1.Cl` (configuration not stated): the “IRF Lucia reporter activity” value in assay [1] (setting [4]) worked out at 1.16.
Take `Cc1ccc(C(=O)C(C)CN2CCCCC2)cc1.Cl` (configuration not stated) (library stock concentration (final ~1000-fold dilution): 10 mM): the “IRF Lucia reporter activity” value is 1.07 in assay [2] (setting [5]) and 1.18 in assay [2] (agonist: LPS (TLR4) 0.1 ug/mL).
As to `CC(C)(C)c1nc(-c2cccc(NS(=O)(=O)c3c(F)cccc3F)c2F)c(-c2ccnc(N)n2)s1.CS(=O)(=O)O`, the “IRF Lucia reporter activity” value in assay [1] (setting [4]) was determined as 0.372.
Regarding `CC(C)(C)c1nc(-c2cccc(NS(=O)(=O)c3c(F)cccc3F)c2F)c(-c2ccnc(N)n2)s1.CS(=O)(=O)O` (library stock concentration (final ~1000-fold dilution): 10 mM), the “IRF Lucia reporter activity” value in assay [2] (setting [5]) is 0.698; in assay [2] (agonist: LPS (TLR4) 0.1 ug/mL) it was 0.755.
The matching figures for `O=C(c1ccc(F)cc1)C1CCN(CCn2c(=O)[nH]c3ccccc3c2=O)CC1` (library stock concentration (final ~1000-fold dilution): 2 mM): 0.999 and 0.972.
`O=C(c1ccc(F)cc1)C1CCN(CCn2c(=O)[nH]c3ccccc3c2=O)CC1`: the “IRF Lucia reporter activity” value in assay [1] (library stock concentration (final ~1000-fold dilution): 2 mM, cytotoxicity flag (confluency mask): not cytotoxic) is 1.4.
Regarding `Cc1csc(-c2nnc(Nc3ccc(Oc4ncccc4-c4ccnc(N)n4)cc3)c3ccccc23)c1` (library stock concentration (final ~1000-fold dilution): 10 mM), the “IRF Lucia reporter activity” value in assay [3] (setting [5]) was 0.123; in assay [3] (agonist: LPS (TLR4) 0.1 ug/mL) it was 0.391.
Regarding `Cc1csc(-c2nnc(Nc3ccc(Oc4ncccc4-c4ccnc(N)n4)cc3)c3ccccc23)c1`, in assay [1] (setting [6]), the “IRF Lucia reporter activity” value was found to be 0.598.
`CC(C)c1cccc(O)c(=O)c1` (library stock concentration (final ~1000-fold dilution): 10 mM): the “IRF Lucia reporter activity” value in assay [2] (setting [5]) turned out to be 0.82; in assay [2] (agonist: LPS (TLR4) 0.1 ug/mL), 1.35.
Taken in the same sequence, the figures for `CC(O)CO.CCOc1ccc(Cc2cc(C3OC(CO)C(O)C(O)C3O)ccc2Cl)cc1.O` (configuration not stated) (library stock concentration (final ~1000-fold dilution): 10 mM) were 1.07 and 1.03.
With `CC(O)CO.CCOc1ccc(Cc2cc(C3OC(CO)C(O)C(O)C3O)ccc2Cl)cc1.O` (configuration not stated), the “IRF Lucia reporter activity” value in assay [1] (setting [4]) is 1.05.
`C=C1CCC2C(C)(CO)C(O)CCC2(C)C1C/C=C1/C(=O)OCC1O` (configuration not stated) (library stock concentration (final ~1000-fold dilution): 10 mM): the “IRF Lucia reporter activity” value was found to be 0.495 ± 0.16 in assay [2] (setting [5]) and 0.679 ± 0.14 in assay [2] (agonist: LPS (TLR4) 0.1 ug/mL).
For `C=C1CCC2C(C)(CO)C(O)CCC2(C)C1C/C=C1/C(=O)OCC1O` (configuration not stated), the “IRF Lucia reporter activity” value in assay [1] (setting [4]) is 0.992 ± 0.32.
Still for that read-out and setting: the result for `CC1=C(C)C(=O)C(C(CCCCCC(=O)O)c2ccccc2)=C(C)C1=O` (configuration not stated) reads 1.
Take `CC1=C(C)C(=O)C(C(CCCCCC(=O)O)c2ccccc2)=C(C)C1=O` (configuration not stated) (library stock concentration (final ~1000-fold dilution): 10 mM): the figures for the “IRF Lucia reporter activity” value in assay [2] (setting [5]) and in assay [2] (agonist: LPS (TLR4) 0.1 ug/mL) were 0.983 and 0.953, respectively.
For the molecule `CC1CCC2(C(=O)OC3OC(COC4OC(CO)C(OC5OC(C)C(O)C(O)C5O)C(O)C4O)C(O)C(O)C3O)CCC3(C)C(=CCC4C5(C)CC(O)C(O)C(C)(CO)C5CCC43C)C2C1C` (configuration not stated), the “IRF Lucia reporter activity” value in assay [1] (setting [4]) amounted to 1.1.
On to `CC1CCC2(C(=O)OC3OC(COC4OC(CO)C(OC5OC(C)C(O)C(O)C5O)C(O)C4O)C(O)C(O)C3O)CCC3(C)C(=CCC4C5(C)CC(O)C(O)C(C)(CO)C5CCC43C)C2C1C` (configuration not stated) (library stock concentration (final ~1000-fold dilution): 10 mM), for which the “IRF Lucia reporter activity” value in assay [2] (setting [5]) is 1.06; in assay [2] (agonist: LPS (TLR4) 0.1 ug/mL), 1.12.
Take `CCC1/C=C(\C)CC(C)CC(OC)C2OC(O)(C(=O)C(=O)N3CCCCC3C(=O)OC(/C(C)=C/C3CCC(Cl)C(OC)C3)C(C)C(O)CC1=O)C(C)CC2OC` (configuration not stated): the “IRF Lucia reporter activity” value in assay [1] (setting [4]) is 1.02.
Regarding `CCC1/C=C(\C)CC(C)CC(OC)C2OC(O)(C(=O)C(=O)N3CCCCC3C(=O)OC(/C(C)=C/C3CCC(Cl)C(OC)C3)C(C)C(O)CC1=O)C(C)CC2OC` (configuration not stated) (library stock concentration (final ~1000-fold dilution): 10 mM), the “IRF Lucia reporter activity” value was 0.715 in assay [2] (setting [5]) and 1.66 in assay [2] (agonist: LPS (TLR4) 0.1 ug/mL).
Take `CC(C)Oc1ccc(-c2cnc3c(-c4ccnc5ccccc45)cnn3c2)cc1`: the “IRF Lucia reporter activity” value in assay [1] (setting [4]) was 0.837.
On to `CC(C)Oc1ccc(-c2cnc3c(-c4ccnc5ccccc45)cnn3c2)cc1` (library stock concentration (final ~1000-fold dilution): 10 mM), for which the “IRF Lucia reporter activity” value was 0.915 in assay [2] (setting [5]) and 1.05 in assay [2] (agonist: LPS (TLR4) 0.1 ug/mL).
Taken in the same sequence, the figures for `c1ccc2c(CCNc3ccc(Nc4ccncc4)cc3)c[nH]c2c1` (library stock concentration (final ~1000-fold dilution): 10 mM) were 0.706 and 0.612.
For the molecule `c1ccc2c(CCNc3ccc(Nc4ccncc4)cc3)c[nH]c2c1`, in assay [1] (setting [4]), the “IRF Lucia reporter activity” value is 2.97.
Regarding `Cc1cc(C(C)Nc2ccccc2C(=O)O)c2nc(N3CCOCC3)cc(=O)n2c1` (configuration not stated) (library stock concentration (final ~1000-fold dilution): 10 mM), the “IRF Lucia reporter activity” value came out at 1 in assay [2] (setting [5]) and 1.04 in assay [2] (agonist: LPS (TLR4) 0.1 ug/mL).
As to `Cc1cc(C(C)Nc2ccccc2C(=O)O)c2nc(N3CCOCC3)cc(=O)n2c1` (configuration not stated), in assay [1] (setting [4]), the “IRF Lucia reporter activity” value worked out at 0.843.
With `COc1ccc2c(Oc3ccc(NC(=O)c4c(C)n(CC(C)(C)O)n(-c5ccccc5)c4=O)nc3)ccnc2c1` (library stock concentration (final ~1000-fold dilution): 10 mM), the “IRF Lucia reporter activity” value in assay [2] (setting [5]) was 0.275; in assay [2] (agonist: LPS (TLR4) 0.1 ug/mL) it was 0.462.
`COc1ccc2c(Oc3ccc(NC(=O)c4c(C)n(CC(C)(C)O)n(-c5ccccc5)c4=O)nc3)ccnc2c1`: in assay [1] (setting [4]), the “IRF Lucia reporter activity” value was 0.588.
For `COc1c(C)cnc(Cn2cnc3c(Cl)nc(N)nc32)c1C`, the “IRF Lucia reporter activity” value in assay [1] (setting [6]) amounted to 1.43.
